Experiments:
[1] = system: Klebsiella pneumoniae KP109 (ATCC 13883); experiment: Minimum Inhibitory Concentration (MIC) assay, CLSI broth dilution; design: key: A = lower than or equal to lowest MIC among three control compounds; B = greater than lowest MIC among three control compounds, but lower than highest MIC among three control compounds; C = greater than MIC of all three control compounds; conditions: class vs MICs of sancycline, minocycline, tigecycline
Method: (§1) Briefly, frozen bacterial strains were thawed and subcultured onto Mueller Hinton Broth (MHB) or other appropriate media (Streptococcus requires blood and Haemophilus requires hemin and NAD). Following incubation overnight, the strains were subcultured onto Mueller Hinton Agar and again incubated overnight. […] Isolated colonies were selected to prepare a starting inoculum equivalent to a 0.5 McFarland standard. The starting inoculum was diluted 1:125 (this is the working inoculum) using MHB for further use. […] .
(§2) The assays were run as follows. Fifty μL of MHB was added to wells 2-12 of a 96-well plate. One hundred μL of appropriately diluted antibiotics was added to well 1. Fifty μL of antibiotics was removed from well 1 and added to well 2 and the contents of well 2 mixed by pipetting up and down five times. Fifty μL of the mixture in well 2 was removed and added to well 3 and mixed as above. Serial dilutions were continued in the same manner through well 12. Fifty μL was removed from well 12 so that all contained 50 μL. Fifty μL of the working inoculum was then added to all test wells. A growth control well was prepared by adding 50 μL of working inoculum and 50 μL of MHB to an empty well. The plates were then incubated at 37° C. overnight, removed from the incubator and each well was read on a plate reading mirror. The lowest concentration (MIC) of test compound that inhibited the growth of the bacteria was recorded.
(§3) The following bacterial strains, listed below, were examined in minimum inhibitory concentration (MIC) assays.

[2] = system: Pseudomonas aeruginosa PA111 (ATCC 27853); experiment: as above; design: key: A = lower than or equal to lowest MIC among three control compounds; B = greater than lowest MIC among three control compounds, but lower than highest MIC among three control compounds; C = greater than MIC of all three control compounds; conditions: class vs MICs of sancycline, minocycline, tigecycline
Method: as §1, §2, §3

| Compound | MIC KP109 13883 [1] | MIC PA111 27853 [2] |
| --- | --- | --- |
| CN(C)[C@@H]1C(O)=C(C(N)=O)C(=O)[C@@]2(O)C(O)=C3C(=O)c4c(O)c5c(c(F)c4C[C@H]3C[C@@H]12)CN(C(C)(C)C1CC1)C5 [Compound 118] | B | B |
| CN(C)[C@@H]1C(O)=C(C(N)=O)C(=O)[C@@]2(O)C(O)=C3C(=O)c4c(O)c5c(c(F)c4C[C@H]3C[C@@H]12)CN(C1CCCC1)C5 [Compound 100] | B | B |
| CC[C@@H](C)N1Cc2c(O)c3c(c(F)c2C1)C[C@H]1C[C@H]2[C@H](N(C)C)C(O)=C(C(N)=O)C(=O)[C@@]2(O)C(O)=C1C3=O [Compound 130] | B | B |
| CN(C)[C@@H]1C(O)=C(C(N)=O)C(=O)[C@@]2(O)C(O)=C3C(=O)c4c(O)c5c(c(F)c4C[C@H]3C[C@@H]12)CN(C(=O)CN1CC[C@H](F)C1)C5 [Compound 147] | B | B |
| CCC(C)(C)N1Cc2cc3c(c(O)c2C1)C(=O)C1=C(O)[C@]2(O)C(=O)C(C(N)=O)=C(O)[C@@H](N(C)C)[C@@H]2C[C@@H]1C3 [Compound 109] | B | B |
| CCCN1Cc2c(O)c3c(c(Cl)c2C1)C[C@H]1C[C@H]2[C@H](N(C)C)C(O)=C(C(N)=O)C(=O)[C@@]2(O)C(O)=C1C3=O [Compound 149] | B | B |
| CC(C)N1Cc2c(O)c3c(c(F)c2C1)C[C@H]1C[C@H]2[C@H](N(C)C)C(O)=C(C(N)=O)C(=O)[C@@]2(O)C(O)=C1C3=O [Compound 143] | B | B |
| CC(C)[C@H](C)N1Cc2c(O)c3c(c(F)c2C1)C[C@H]1C[C@H]2[C@H](N(C)C)C(O)=C(C(N)=O)C(=O)[C@@]2(O)C(O)=C1C3=O [Compound 137] | B | B |
| CCC(C)(C)N1Cc2c(O)c3c(c(F)c2C1)C[C@H]1C[C@H]2[C@H](N(C)C)C(O)=C(C(N)=O)C(=O)[C@@]2(O)C(O)=C1C3=O [Compound 129] | B | B |
| CN(C)[C@@H]1C(O)=C(C(N)=O)C(=O)[C@@]2(O)C(O)=C3C(=O)c4c(O)c5c(c(F)c4C[C@H]3C[C@@H]12)CN(C(C)(C)C)C5 [Compound 102] | B | B |
| CN(C)CC(=O)N1Cc2c(O)c3c(c(F)c2C1)C[C@H]1C[C@H]2[C@H](N(C)C)C(O)=C(C(N)=O)C(=O)[C@@]2(O)C(O)=C1C3=O [Compound 131] | B | B |
| CN(C)[C@@H]1C(O)=C(C(N)=O)C(=O)[C@@]2(O)C(O)=C3C(=O)c4c(O)c5c(c(F)c4C[C@H]3C[C@@H]12)CN([C@@H]1CCOC1)C5 [Compound 140] | B | B |
| CCC(C)(C)N1Cc2c(O)c3c(c(Cl)c2C1)C[C@H]1C[C@H]2[C@H](N(C)C)C(O)=C(C(N)=O)C(=O)[C@@]2(O)C(O)=C1C3=O [Compound 150] | B | B |
| CC(C)[C@@H](C)N1Cc2c(O)c3c(c(F)c2C1)C[C@H]1C[C@H]2[C@H](N(C)C)C(O)=C(C(N)=O)C(=O)[C@@]2(O)C(O)=C1C3=O [Compound 106] | B | B |
| CC[C@H](C)N1Cc2c(O)c3c(c(F)c2C1)C[C@H]1C[C@H]2[C@H](N(C)C)C(O)=C(C(N)=O)C(=O)[C@@]2(O)C(O)=C1C3=O [Compound 123] | B | B |
| CN(C)[C@@H]1C(O)=C(C(N)=O)C(=O)[C@@]2(O)C(O)=C3C(=O)c4c(O)c5c(c(F)c4C[C@H]3C[C@@H]12)CN(C(=O)CN1CCCC1)C5 [Compound 139] | B | B |
| CN(C)[C@@H]1C(O)=C(C(N)=O)C(=O)[C@@]2(O)C(O)=C3C(=O)c4c(O)c5c(c(F)c4C[C@H]3C[C@@H]12)CN(CCF)C5 [Compound 107] | B | B |
| CN(C)[C@@H]1C(O)=C(C(N)=O)C(=O)[C@@]2(O)C(O)=C3C(=O)c4c(O)c5c(c(F)c4C[C@H]3C[C@@H]12)CCN(C1CCCC1)C5 [Compound 202] | B | B |
| CN(C)[C@@H]1C(O)=C(C(N)=O)C(=O)[C@@]2(O)C(O)=C3C(=O)c4c(O)c5c(c(Cl)c4C[C@H]3C[C@@H]12)CN(C(C)(C)C)C5 [Compound 144] | B | B |
| CC[C@H](C)N1Cc2c(O)c3c(c(Cl)c2C1)C[C@H]1C[C@H]2[C@H](N(C)C)C(O)=C(C(N)=O)C(=O)[C@@]2(O)C(O)=C1C3=O [Compound 110] | B | B |
| CC[C@@H](C)N1Cc2c(O)c3c(c(Cl)c2C1)C[C@H]1C[C@H]2[C@H](N(C)C)C(O)=C(C(N)=O)C(=O)[C@@]2(O)C(O)=C1C3=O [Compound 117] | B | B |
| CN(C)[C@@H]1C(O)=C(C(N)=O)C(=O)[C@@]2(O)C(O)=C3C(=O)c4c(O)c5c(c(F)c4C[C@H]3C[C@@H]12)CNC5 [Compound 105] | B | B |
| CN(C)[C@@H]1C(O)=C(C(N)=O)C(=O)[C@@]2(O)C(O)=C3C(=O)c4c(O)c5c(c(F)c4C[C@H]3C[C@@H]12)CN(C[C@H]1CCCO1)C5 [Compound 108] | B | B |
| CN(C)[C@@H]1C(O)=C(C(N)=O)C(=O)[C@@]2(O)C(O)=C3C(=O)c4c(O)c5c(c(F)c4C[C@H]3C[C@@H]12)CN(C(=O)CNC1CCCC1)C5 [Compound 111] | B | B |

Results, then the compound that gave them:

| MIC KP109 13883 [1] | MIC PA111 27853 [2] | Compound |
| --- | --- | --- |
| B | B | CCC(C)N1Cc2c(O)c3c(c(F)c2C1)C[C@H]1C[C@H]2[C@H](N(C)C)C(O)=C(C(N)=O)C(=O)[C@@]2(O)C(O)=C1C3=O (stereo partly shown) [Compound 120] |
| B | B | CN(C)[C@@H]1C(O)=C(C(N)=O)C(=O)[C@@]2(O)C(O)=C3C(=O)c4c(O)c5c(c(F)c4C[C@H]3C[C@@H]12)CN(C(C)(C)CC(C)(C)C)C5 [Compound 133] |
| B | B | CN(C)[C@@H]1C(O)=C(C(N)=O)C(=O)[C@@]2(O)C(O)=C3C(=O)c4c(O)c5c(c(F)c4C[C@H]3C[C@@H]12)CN(CC(C)(C)C)C5 [Compound 101] |
| B | B | CC(C)CN1Cc2c(O)c3c(c(F)c2C1)C[C@H]1C[C@H]2[C@H](N(C)C)C(O)=C(C(N)=O)C(=O)[C@@]2(O)C(O)=C1C3=O [Compound 121] |
| B | B | CCCN1Cc2c(O)c3c(c(F)c2C1)C[C@H]1C[C@H]2[C@H](N(C)C)C(O)=C(C(N)=O)C(=O)[C@@]2(O)C(O)=C1C3=O [Compound 142] |
| B | B | CN(C)[C@@H]1C(O)=C(C(N)=O)C(=O)[C@@]2(O)C(O)=C3C(=O)c4c(O)c5c(c(F)c4C[C@H]3C[C@@H]12)CCN(CC(C)(C)C)C5 [Compound 201] |
| B | B | CN(C)[C@@H]1C(O)=C(C(N)=O)C(=O)[C@@]2(O)C(O)=C3C(=O)c4c(O)c5c(c(F)c4C[C@H]3C[C@@H]12)CCN(C(C)(C)C)C5 [Compound 200] |
| B | B | CN(C)[C@@H]1C(O)=C(C(N)=O)C(=O)[C@@]2(O)C(O)=C3C(=O)c4c(O)c5c(c(F)c4C[C@H]3C[C@@H]12)CN(C(C)(C)CN1CCCC1)C5 [Compound 146] |
| B | B | COCCN1Cc2c(O)c3c(c(F)c2C1)C[C@H]1C[C@H]2[C@H](N(C)C)C(O)=C(C(N)=O)C(=O)[C@@]2(O)C(O)=C1C3=O [Compound 134] |
| B | B | CN(C)[C@@H]1C(O)=C(C(N)=O)C(=O)[C@@]2(O)C(O)=C3C(=O)c4c(O)c5c(c(F)c4C[C@H]3C[C@@H]12)CN(C[C@@H]1CCCO1)C5 [Compound 104] |
| B | B | CN(C)[C@@H]1C(O)=C(C(N)=O)C(=O)[C@@]2(O)C(O)=C3C(=O)c4c(O)c5c(c(F)c4C[C@H]3C[C@@H]12)CN(C(C)(C)CO)C5 [Compound 136] |
